Measurements: article PMC6104132
No constants are given. Whether binding was seen depends on the method and setting. Binding seen in cells or lysates may run through a third protein. Some binding calls cover weakened binding; strength is not graded here. Tags and fused reporters may be left off the sequences shown.

Amino acid sequences for entries named in this document (tags omitted). Chains listed by the source or under a name are the forms on record and can include a tag or linker. Residues count along the entry.
UniProt Q9PID1, residues 27-201: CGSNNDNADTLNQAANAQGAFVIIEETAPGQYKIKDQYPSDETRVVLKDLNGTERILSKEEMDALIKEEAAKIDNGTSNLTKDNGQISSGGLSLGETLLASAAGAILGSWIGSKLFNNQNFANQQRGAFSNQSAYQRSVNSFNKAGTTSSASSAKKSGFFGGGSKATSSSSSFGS
His-tagged Cj1564 (residues 42-290 of Cj1564) (Q0P864, residues 42-290): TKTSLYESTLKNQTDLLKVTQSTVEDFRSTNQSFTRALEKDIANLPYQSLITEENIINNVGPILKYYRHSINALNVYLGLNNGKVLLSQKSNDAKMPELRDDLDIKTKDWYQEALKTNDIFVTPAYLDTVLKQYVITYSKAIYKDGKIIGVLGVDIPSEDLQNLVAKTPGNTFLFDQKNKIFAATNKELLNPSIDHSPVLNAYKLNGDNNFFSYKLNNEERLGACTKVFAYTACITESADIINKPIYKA
His-tagged Cj6462 (residues 317-662 of Cj1564) (Q0P864, residues 317-662): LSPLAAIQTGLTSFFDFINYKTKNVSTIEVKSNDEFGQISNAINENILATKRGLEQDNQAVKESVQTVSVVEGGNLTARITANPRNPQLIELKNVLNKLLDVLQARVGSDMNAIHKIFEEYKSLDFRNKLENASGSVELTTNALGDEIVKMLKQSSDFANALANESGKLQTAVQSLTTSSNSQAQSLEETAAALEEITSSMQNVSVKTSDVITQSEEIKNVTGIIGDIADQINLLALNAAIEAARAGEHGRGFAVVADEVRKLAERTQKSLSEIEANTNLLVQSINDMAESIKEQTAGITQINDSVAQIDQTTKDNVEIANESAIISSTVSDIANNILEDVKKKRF
UniProt Q0P9E4: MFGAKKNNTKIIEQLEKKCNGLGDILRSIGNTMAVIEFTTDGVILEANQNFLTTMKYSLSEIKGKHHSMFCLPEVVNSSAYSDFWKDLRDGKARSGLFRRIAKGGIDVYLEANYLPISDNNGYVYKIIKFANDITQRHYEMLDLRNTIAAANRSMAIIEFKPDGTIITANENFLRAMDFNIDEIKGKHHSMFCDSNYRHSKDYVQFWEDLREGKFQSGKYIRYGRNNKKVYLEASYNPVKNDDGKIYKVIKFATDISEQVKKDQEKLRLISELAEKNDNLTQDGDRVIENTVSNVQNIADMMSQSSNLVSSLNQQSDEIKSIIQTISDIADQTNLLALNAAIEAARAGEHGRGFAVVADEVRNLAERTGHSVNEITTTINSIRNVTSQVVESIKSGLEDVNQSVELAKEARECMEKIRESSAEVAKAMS
UniProt P0C635: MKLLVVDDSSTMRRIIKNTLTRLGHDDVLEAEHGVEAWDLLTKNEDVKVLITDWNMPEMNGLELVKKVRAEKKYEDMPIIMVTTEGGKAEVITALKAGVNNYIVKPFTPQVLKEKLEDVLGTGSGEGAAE

B1: His-tagged CheV (protein, UniProt Q0PBM1 1-318)
chain: MFDENIVKTGSNEMELVDFRIFKQGHDKVYEGIYGVNVSKVREIIKIPSLTELPGVPDYIEGIFDLRGVVIPVVNLAKWMQITEPESTMLKPRVIITEFSNILIGFIVHEAKRIRRINWKDIEPATFSTGSGALDKGKITGVTRIENDEVLLILDLESVVEDLGIYAPKTDIDFGKIEKFTGTALILDDSMTARKRVKEMMQQMGFQVVEAKDGVEGINKLEELSQIYGESLNDTLKIIVSDVEMPQMDGFHFAARIKEDPRFKDIPIVFNSSLSNEFMNEKGVQEAGGEGYLVKFNASDFFNEIAKVIKKHQSQEQG
B2: His-tagged CheA (protein, UniProt Q0PBM2 1-769)
chain: MEDMQEILEDFLVEAFELVEQIDHDLVELESNPEDLELLNRIFRVAHTVKGSSSFLNFDVLTKLTHHMEDVLNKARHGELKITPDIMDVVLESIDRMKTLLNSIRDNGNDTAIGMDIEPICARLTAISEGESPVVATDSNEKSIPQAELEAPKQEIATPEPEVDVNQLSDSEVEAEIERLLKVRKAEDQARRAQKKQTTNAAPKPTNNTANKPTESGEKKVPASGSNASSMDQTIRVEVKRLDHLMNLIGELVLGKNRLLKIYDDVEERYEGEKFLEELNQVVSQLSIIITDVQLAVMKTRMQPIAKVFNKFPRVVRDLSRELGKQIELEITGEETELDKSIVEEIGDPIMHMIRNSCDHGVEDPATRAANGKPEKGIVQLKAYNEGNHIVVEITDDGKGLDPNGLKAKAIEKNLITEREADQMTDKEAFALIFKPGFSTAAKVTNVSGRGVGMDVVKTNIEKLNGVIEIDSELGKGSSFKLKIPLTLAIIQSLLVGTQEEFYAIPLASVLETVRVPIDDIYTIEGKNVLRLRDEVLSLVRLSDVFGVKQVLESGDQTYVVVIGVAESKLGIIVDTLVGQEEIVIKSMGDYLQNIQGIAGATIRGDGRVTLIIDVGAMMDMAKEIKVDIKAQLESSAKKPKEQPSDYKVLIVDDSKMDRTLMQKALEPLGVSLIEATNGVEALNIIKSGEHDIDAMLIDIEMPRMDGYTLAGEIRKYSKYRNLPLIAVTSRTSKTDRLRGVEVGMTEYITKPYSPEYLENVVRKNLKLG

molecular target: GST-Cj0371 (C. jejuni NCTC11168) (UniProt Q9PID1); assay: pull-down

“His-tagged Cj1564 (residues 42-290 of Cj1564) (from UniProt Q0P864 42-290) (domain or fragment)” was tested. Which binding did it give?
The binding was “no binding”.

With “His-tagged Cj1110c (from UniProt Q0P9E4 1-429)” as the molecule, how does the binding read?
Its binding is “no binding”.

For “His-tagged CheY (from UniProt P0C635 1-130)”, which binding is on record?
Its binding is “no binding”.

“His-tagged Cj6462 (residues 317-662 of Cj1564) (from UniProt Q0P864 317-662) (domain or fragment)” was tested. Which binding did it give?
The binding was “no binding”.

With B1 as the molecule, how does the binding read?
Its binding is “binds”.

With B2 as the molecule, how does the binding read?
Its binding is “no binding”.
